According to the supplement of paper PMC3334620:
Whole data set: some 33,000 sequences, median “E-score (-0.5 to 0.5)” near -0.053, cut for the highest 2% near 0.37. Some of the results follow.

Each sequence was assayed against Hap1 (UniProt P0CE41) (assay: PBM E-score (8-mer binding enrichment) (E-score (-0.5 to 0.5)); higher = stronger / more preferred TF binding; most listed sequences are background and not binding sites). Conditions: protein concentration: 200 nM; construct: GST-DNA-binding domain.
Outline: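 Universal all-10-mer Agilent arrays, double-stranded by primer extension on fresh or once-stripped slides, were probed with about 100-200 nM GST-tagged yeast transcription factors made by PURExpress. Fluorescent anti-GST detected bound protein, and masliner normalised the scans. E-scores from the Universal PBM Analysis Suite were given to each ungapped eight-base word pooled with its reverse complement.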

Sequence of UniProt P0CE41 (P0CE41 whole entry, the tested form may be a part): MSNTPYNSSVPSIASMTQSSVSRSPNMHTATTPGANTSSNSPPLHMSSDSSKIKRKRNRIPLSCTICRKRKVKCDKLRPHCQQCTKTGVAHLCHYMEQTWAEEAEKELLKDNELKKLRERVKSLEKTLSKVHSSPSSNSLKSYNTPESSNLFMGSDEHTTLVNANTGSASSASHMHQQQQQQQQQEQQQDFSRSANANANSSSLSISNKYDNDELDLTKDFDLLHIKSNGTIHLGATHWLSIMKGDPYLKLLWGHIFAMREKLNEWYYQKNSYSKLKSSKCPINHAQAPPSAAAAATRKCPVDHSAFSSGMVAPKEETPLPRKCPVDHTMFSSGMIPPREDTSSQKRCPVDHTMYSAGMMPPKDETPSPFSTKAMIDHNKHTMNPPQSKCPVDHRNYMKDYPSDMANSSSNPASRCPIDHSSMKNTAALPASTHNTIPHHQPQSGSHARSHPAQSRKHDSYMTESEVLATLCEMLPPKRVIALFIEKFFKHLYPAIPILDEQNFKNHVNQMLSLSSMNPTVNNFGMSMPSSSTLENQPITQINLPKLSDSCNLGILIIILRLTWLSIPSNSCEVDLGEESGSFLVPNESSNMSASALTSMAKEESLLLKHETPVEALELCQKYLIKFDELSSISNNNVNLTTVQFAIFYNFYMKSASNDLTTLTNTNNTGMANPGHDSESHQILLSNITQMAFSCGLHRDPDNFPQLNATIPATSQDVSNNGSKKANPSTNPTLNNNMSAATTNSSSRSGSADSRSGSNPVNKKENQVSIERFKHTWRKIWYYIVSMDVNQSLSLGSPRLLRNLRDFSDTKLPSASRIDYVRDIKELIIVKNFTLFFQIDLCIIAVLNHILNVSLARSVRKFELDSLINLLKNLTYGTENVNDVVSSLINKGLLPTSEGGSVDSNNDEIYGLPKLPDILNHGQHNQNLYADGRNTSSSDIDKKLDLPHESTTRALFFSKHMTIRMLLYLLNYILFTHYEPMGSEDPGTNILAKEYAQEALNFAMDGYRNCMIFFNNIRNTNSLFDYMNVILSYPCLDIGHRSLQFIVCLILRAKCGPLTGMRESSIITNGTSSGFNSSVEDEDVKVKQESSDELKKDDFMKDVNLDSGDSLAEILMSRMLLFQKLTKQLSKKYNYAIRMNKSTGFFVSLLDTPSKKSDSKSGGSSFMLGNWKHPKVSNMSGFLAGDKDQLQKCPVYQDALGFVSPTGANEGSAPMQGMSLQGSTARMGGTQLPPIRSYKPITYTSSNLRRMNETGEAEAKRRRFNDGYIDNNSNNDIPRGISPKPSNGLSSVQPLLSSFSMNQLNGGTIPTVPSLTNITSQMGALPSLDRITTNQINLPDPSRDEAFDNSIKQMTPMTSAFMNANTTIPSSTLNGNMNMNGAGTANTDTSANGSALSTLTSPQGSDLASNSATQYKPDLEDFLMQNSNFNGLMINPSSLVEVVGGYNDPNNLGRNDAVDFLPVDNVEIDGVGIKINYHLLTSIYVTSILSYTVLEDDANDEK

| Sequence | PBM E-score |
| --- | --- |
| AAGACCTT | -0.295 |
| ATTCCGTC | 0.213 |
| TGTCCAAA | -0.133 |
| GGCAGCCC | 0.113 |
| CCATGTCA | -0.288 |
| GAAGGCAC | -0.0924 |
| CCTTGGAC | -0.217 |
| CTTAGTGC | -0.0311 |
| GGGGACAC | -0.0417 |
| AGCAAGCG | 0.139 |
| AGCCGGAG | 0.404 |
| AGGATCGA | -0.0345 |
| ACAGGCAT | -0.264 |
| CCTGAACC | -0.351 |
| GTATACAC | -0.01 |
| ATGGCGTC | -0.0274 |
| AGCTTCCG | 0.151 |
| CCATGTCG | -0.0421 |
| CGAATTAA | 0.0158 |
| AAACGTGC | -0.217 |
| ACAAGCCC | -0.0592 |
| CCGGACCA | 0.372 |
| ACTTGCGA | -0.0228 |
| AAGTATAT | 0.0963 |
| ATCCGACC | 0.307 |

| Sequence | PBM E-score |
| --- | --- |
| ATCAGTAG | -0.276 |
| ACTGCGCA | 0.00346 |
| AATTACTG | -0.12 |
| ACCCCATC | 0.0549 |
| CATGGACC | -0.0726 |
| ACAGTTGA | -0.16 |
| AGGTAAAG | -0.0257 |
| CCCATAAC | 0.0228 |
| AGTTTATA | 0.128 |
| CCCAGGGA | -0.304 |
| CGAAATCC | 0.284 |
| TGGAGTAA | -0.148 |
| CGCTAACA | -0.00407 |
| TCTTGCAA | 0.127 |
| ATATTTTA | -0.0539 |
| CGAGTATA | 0.00078 |
| ACATATGC | -0.301 |
| GCCACCGA | 0.0551 |
| AGACCGAC | 0.346 |
| AGCACTGA | -0.102 |
| ACGTTATC | 0.17 |
| AACAGCCT | -0.24 |
| ATCCTGAC | -0.135 |
| ATGGGTTA | -0.0828 |
| GGCCCGAA | 0.384 |

| Sequence | PBM E-score |
| --- | --- |
| AGAGAGAT | -0.285 |
| CCGCTTCA | 0.0542 |
| CAGACTTC | -0.289 |
| GCAGACAA | -0.0966 |
| AGCACGCC | 0.0637 |
| AGGAGGTA | -0.044 |
| AGACCCAC | -0.094 |
| ATTTTAGA | -0.109 |
| GGTCCAAA | 0.0135 |
| ACTGCGGA | 0.199 |
| ACCGCGCT | 0.15 |
| AGGAACGA | -0.0316 |
| CCGACTGC | 0.274 |
| ACTCAGCT | -0.171 |
| ATCTGCAA | -0.287 |
| ACTCTCGC | -0.0418 |
| AGATATGG | -0.0259 |
| AAAGCCAA | 0.00136 |
| CCTGTAAA | -0.273 |
| CCCTGAAA | -0.24 |
| GATCGGGC | 0.28 |
| AGTTTCCC | -0.0919 |
| ACTTTTAA | -0.177 |
| CCACGAGC | 0.0826 |
| CGCGAAGA | 0.119 |

| Sequence | PBM E-score |
| --- | --- |
| CTCAACAA | -0.196 |
| ATTCGAGG | -0.221 |
| ATCTTTGG | -0.0801 |
| GATCCTAA | -0.233 |
| CCAGAGGG | 0.0653 |
| ATATTACA | 0.0647 |
| AATATAAA | 0.137 |
| AGTCTAGC | -0.126 |
| GACATCCC | 0.203 |
| CTTGGTAA | -0.161 |
| CGGTTGGC | 0.171 |
| GGCAGAAC | 0.103 |
| GAATCGTC | 0.117 |
| ACGCACGC | 0.197 |
| CGTAGCCA | 0.00448 |
| CAGTGCAG | -0.114 |
| CTAGGTGA | -0.335 |
| GCGCTTGA | 0.0689 |
| ACTGAAGG | -0.129 |
| AAACCTGA | -0.224 |
| AGCCGTCA | 0.118 |
| CGTACCAG | -0.0509 |
| TTGGACAA | -0.155 |
| ATGTACAT | -0.0187 |
| AACCATGG | -0.0645 |

| Sequence | PBM E-score |
| --- | --- |
| AGCCACGG | 0.129 |
| AGATCGTA | -0.0963 |
| ATGGTAAT | 0.0498 |
| CGAGGGCC | 0.133 |
| AAAGGAGG | -0.217 |
| CAATAATC | 0.0332 |
| ATGATCAT | -0.237 |
| GATACACC | 0.147 |
| AGGCCGGA | 0.336 |
| CATAGACG | -0.0605 |
| ACGAACGT | -0.108 |
| GAAGTCTC | 0.0327 |
| CGGAAACA | 0.384 |
| CGTCAAGA | -0.118 |
| TAGACCTA | -0.239 |
| CTTCTTTC | -0.159 |
| GCGCGAGA | 0.17 |
| GCTTAAGC | -0.0667 |
| CTCGGATA | 0.371 |
| ATGGGGTC | 0.142 |
| TGAGGTAA | -0.0381 |
| CGTAAACC | 0.0738 |
| ACGTCACT | 0.0437 |
| CTCACTTC | -0.188 |
| GATTTGGC | -0.0228 |

| Sequence | PBM E-score |
| --- | --- |
| ATGCCCGA | 0.24 |
| AGCATAGA | -0.192 |
| TAATATTA | 0.151 |
| CCTCTCGC | -0.0347 |
| ATCGCAAT | 0.0688 |
| CCACATAA | -0.099 |
| CGGCGCAA | 0.258 |
| AACAGTGT | -0.295 |
| CGCGACAA | 0.116 |
| AGCCACAT | -0.237 |
| CCCATTTA | -0.104 |
| CACAAGCC | -0.0712 |
| CGACGATC | 0.0288 |
| GCTATGCA | -0.261 |
| ATCGGAGG | 0.227 |
| ACATGCGG | 0.162 |
| AGTGGAGG | -0.129 |
| GTACAGGA | 0.0445 |
| ACTGTAAT | -0.073 |
| ACGCCGTG | 0.113 |
| ATTCTCAC | -0.0744 |
| CTAGAGCA | -0.213 |
| ATCTACTC | 0.127 |
| AGAGACGC | 0.12 |
| CGGTTGAA | 0.192 |

| Sequence | PBM E-score |
| --- | --- |
| AGCTACTA | -0.104 |
| GACTTATC | 0.247 |
| CACTTGAC | -0.16 |
| CGGTCCAC | 0.136 |
| GGGCACGA | -0.0376 |
| AAGAGCCG | 0.31 |
| GCCCCGGC | 0.25 |
| ATCCCGAG | 0.284 |
| ATTAGGCC | -0.0704 |
| GAGGAATA | 0.0428 |
| CATGTTAA | 0.0683 |
| GCCGCGAC | 0.109 |
| AATCATCG | 0.156 |
| GGGCGACA | 0.197 |
| TAGAATGA | -0.239 |
| ACCAGTCC | 0.0184 |
| ACTTTTTG | -0.164 |
| GTACTACA | -0.185 |
| GGTGACGA | -0.257 |
| CAGCTCCC | -0.147 |
| GAACCTCC | -0.0608 |
| ATTAAACA | -0.127 |
